In the supplement of paper PMC3334620:
The full ranking holds about 33,000 sequences; the median of “E-score (-0.5 to 0.5)” is about -0.035, and the highest 2% start at about 0.34. The list shows a part of the results.

Target: T1, Mot3 (UniProt P54785)
T1 sequence: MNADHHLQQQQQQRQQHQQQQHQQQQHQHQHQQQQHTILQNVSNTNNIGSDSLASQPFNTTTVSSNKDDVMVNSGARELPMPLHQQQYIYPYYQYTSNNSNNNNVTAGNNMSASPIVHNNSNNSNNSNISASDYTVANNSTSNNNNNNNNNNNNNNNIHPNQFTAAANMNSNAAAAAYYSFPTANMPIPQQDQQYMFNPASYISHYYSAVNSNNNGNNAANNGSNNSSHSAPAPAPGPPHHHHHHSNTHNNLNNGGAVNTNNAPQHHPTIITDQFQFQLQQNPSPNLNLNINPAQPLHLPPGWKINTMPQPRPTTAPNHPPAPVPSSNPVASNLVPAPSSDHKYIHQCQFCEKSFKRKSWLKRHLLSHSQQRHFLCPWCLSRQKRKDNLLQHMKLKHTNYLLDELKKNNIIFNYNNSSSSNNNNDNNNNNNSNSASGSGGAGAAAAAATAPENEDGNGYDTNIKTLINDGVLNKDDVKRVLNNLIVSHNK
Assay: PBM E-score (8-mer binding enrichment) (E-score (-0.5 to 0.5)); higher = stronger / more preferred TF binding; most listed sequences are background and not binding sites
Settings: protein concentration: 200 nM; construct: GST-full length
Method in brief: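 Each ungapped eight-base word and its reverse complement, pooled, received an E-score from the Universal PBM Analysis Suite. Underlying scans, normalised with masliner, recorded fluorescent anti-GST bound to GST-tagged yeast transcription factors. These were applied at about 100-200 nM to universal all-10-mer Agilent arrays double-stranded by primer extension.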

In order of falling “PBM E-score” value:
1. ATAGGCAC  0.491
2. CCTAGGCA  0.459
3. ATGTAAAA  0.415
4. ATGCCTTC  0.36
5. AGGAAAAA  0.352
6. TGTTAAAA  0.343
7. GCATGTAC  0.321
8. ATGTGTTG  0.317
9. AGGTAAAA  0.303
10. TTGTACAA  0.3
11. ATGTACTG  0.295
12. ACAACAGG  0.287
13. CAAGGTAA  0.258
14. GTGAAGGA  0.239
15. ACGCAGGC  0.234
16. CTCAGGTA  0.226
17. ATCAAGGA  0.216
18. ATTAATAC  0.21
19. ACATAGTC  0.203
20. GCTCTACA  0.197
21. ATATTAAA  0.184
22. ACACCTAC  0.176
23. ACCTGTGC  0.166
24. ACGAAAAT  0.163
25. AATTTATC  0.15
26. TATTAGAA  0.148
27. ATGAACAC  0.146
28. ATGCAAAT  0.146
29. AAAAAGGA  0.145
30. ACAATAGG  0.145
31. ATACGATG  0.143
32. GCGTCATA  0.142
33. CTTTACGA  0.139
34. AGCGGTAA  0.138
35. ATTGCGAC  0.137
36. CTGGTACA  0.137
37. AAAATCAG  0.137
38. AATCTTTG  0.136
39. AGGGCAAG  0.13
40. AGTAAAGA  0.121
41. AGTACTAC  0.121
42. ATATTCAT  0.116
43. AAGAGTGA  0.115
44. CGAGTGCA  0.114
45. GGAATTAA  0.113
46. ACCGACCA  0.108
47. ACTTCAAG  0.103
48. ACTGTCTA  0.097
49. ATAGCAGA  0.0946
50. GTATACTA  0.0853
51. CTGGTGTA  0.0826
52. CGTCGACA  0.0801
53. ACGTATGG  0.0794
54. AAAGATCA  0.07
55. GATTTTAA  0.0698
56. AGGTCAAA  0.0674
57. CTAAAAAA  0.0674
58. CATAGCAA  0.0672
59. CCTTACTC  0.064
60. ATGGATTG  0.0625
61. CTACAAAA  0.06
62. ACGTTAGC  0.0573
63. ACCGTCTC  0.0553
64. ACAGCCAA  0.051
65. ATTCATAC  0.048
66. CTCGTAAG  0.047
67. TCAGTCAA  0.0421
68. ACTATACG  0.0406
69. CACAGCCC  0.0336
70. CTCTTATC  0.0302
71. AATAAAGA  0.0295
72. AGAACACT  0.0286
73. ACTCAGCA  0.026
74. GACAAGCC  0.0255
75. CATACAAG  0.0233
76. GCAAAGAA  0.0209
77. GAAGTCGA  0.0161
78. CAAAACAG  0.0113
79. ACAACGAC  0.0106
80. CAGTAAAC  0.00975
81. AATGCATA  0.00014
82. CTTATCAA  -0.00458
83. ATAGTCTG  -0.00799
84. ACCAGAGG  -0.00904
85. AAAACTAT  -0.0128
86. CAAGACAA  -0.0139
87. ACTCTCAG  -0.0221
88. CAAACCGA  -0.0256
89. AAAAATTT  -0.0273
90. ACGGCTCC  -0.0289
91. CCTTTCCC  -0.0301
92. GAAAGGCC  -0.0302
93. ATAGCGAG  -0.032
94. CGAAGTAG  -0.037
95. AGTTAGCA  -0.0464
96. AGAGAAGC  -0.0484
97. AACAGGGG  -0.0517
98. GCAGCTGA  -0.0519
99. ATCGTGGG  -0.0544
100. CCCATGGG  -0.0565
101. ACGATTGG  -0.0617
102. TAAGGTGA  -0.0657
103. AGAAAGTC  -0.0673
104. GACAGGGC  -0.0734
105. GCGGTGGA  -0.0759
106. AACCATCA  -0.0787
107. AGGCGGAT  -0.0835
108. CGTATCTC  -0.0845
109. CTACCAAA  -0.0856
110. CTAGATAC  -0.0863
111. CCTGAAGC  -0.0867
112. GAGTCGAC  -0.0875
113. TGCTCCCA  -0.0924
114. ATGAGTGC  -0.0961
115. ATAAATCG  -0.0995
116. GCTCTCAA  -0.101
117. GGGGACTA  -0.103
118. AACTGTTG  -0.108
119. TCGTCTAA  -0.108
120. ACCCTAAA  -0.118
121. GAACACCC  -0.123
122. AACCCGCA  -0.123
123. GACTGGGA  -0.123
124. ACCTGGAC  -0.129
125. ATGGTTTG  -0.13
126. GGTCAGAA  -0.131
127. CTCCGAAC  -0.132
128. CCGGAAAC  -0.134
129. AGCGGTTA  -0.136
130. CTCGTCGC  -0.139
131. TGTCCCAA  -0.142
132. CGAGTGAG  -0.143
133. CATACCGG  -0.15
134. CGCGGAAC  -0.151
135. GGTGAGCA  -0.152
136. ACCCTGCT  -0.153
137. CACTTCTC  -0.162
138. AAGTCCTG  -0.164
139. GGGAACCA  -0.175
140. TCTCCAGA  -0.178
141. GCTTCGCA  -0.185
142. GTCTTCGA  -0.186
143. GAGCGAGC  -0.188
144. AGCCCGAT  -0.195
145. AATCGGAG  -0.197
146. AAGCCGCA  -0.198
147. GGCTGGCA  -0.198
148. CAGGGCGC  -0.199
149. CCGGGATC  -0.21
150. GACTCCTC  -0.213
151. GCCGCAAA  -0.22
152. GCGACAGA  -0.224
153. CCGTTGAC  -0.234
154. AGCCAAGC  -0.237
155. GGCGACAA  -0.238
156. GAGGCCTC  -0.239
157. AGGCTTGG  -0.241
158. CCATGAGC  -0.245
159. CTCCCAAC  -0.249
160. CCATCTCG  -0.251
161. GATTCCCC  -0.259
162. GGTTGCTA  -0.26
163. AGAGGCCA  -0.274
164. AGCTTATC  -0.286
165. CTAGGTCC  -0.291
166. AGGGAGCG  -0.293
167. AGTGCGAG  -0.295
168. CGGTACCA  -0.331
169. CTCCCGAG  -0.343
170. AGCCACCG  -0.36
171. GGGTGCCA  -0.367
172. CGGCTGAG  -0.368
